Results on 46 compounds are retold here after article PMC4336329 (PLoS ONE, 2015).

The structures appear in SMILES notation. Out of some 310,000 compounds screened, about 2,200 (0.71%) showed an effect of 50% or more. The effect is printed as a negative number. This is one part of the list. Where a SMILES comes first, the peptide text is derived from it. The star is where a group is joined. Bz = O=C(c1ccccc1)*

In the assay the target is human ether-à-go-go-related gene (hERG) potassium channel (human, UniProt Q12809). Kind of assay: primary screen, population patch clamp on CHO cells stably expressing hERG.
Sequence of human ether-à-go-go-related gene (hERG) potassium channel (Q12809 whole entry, looked up): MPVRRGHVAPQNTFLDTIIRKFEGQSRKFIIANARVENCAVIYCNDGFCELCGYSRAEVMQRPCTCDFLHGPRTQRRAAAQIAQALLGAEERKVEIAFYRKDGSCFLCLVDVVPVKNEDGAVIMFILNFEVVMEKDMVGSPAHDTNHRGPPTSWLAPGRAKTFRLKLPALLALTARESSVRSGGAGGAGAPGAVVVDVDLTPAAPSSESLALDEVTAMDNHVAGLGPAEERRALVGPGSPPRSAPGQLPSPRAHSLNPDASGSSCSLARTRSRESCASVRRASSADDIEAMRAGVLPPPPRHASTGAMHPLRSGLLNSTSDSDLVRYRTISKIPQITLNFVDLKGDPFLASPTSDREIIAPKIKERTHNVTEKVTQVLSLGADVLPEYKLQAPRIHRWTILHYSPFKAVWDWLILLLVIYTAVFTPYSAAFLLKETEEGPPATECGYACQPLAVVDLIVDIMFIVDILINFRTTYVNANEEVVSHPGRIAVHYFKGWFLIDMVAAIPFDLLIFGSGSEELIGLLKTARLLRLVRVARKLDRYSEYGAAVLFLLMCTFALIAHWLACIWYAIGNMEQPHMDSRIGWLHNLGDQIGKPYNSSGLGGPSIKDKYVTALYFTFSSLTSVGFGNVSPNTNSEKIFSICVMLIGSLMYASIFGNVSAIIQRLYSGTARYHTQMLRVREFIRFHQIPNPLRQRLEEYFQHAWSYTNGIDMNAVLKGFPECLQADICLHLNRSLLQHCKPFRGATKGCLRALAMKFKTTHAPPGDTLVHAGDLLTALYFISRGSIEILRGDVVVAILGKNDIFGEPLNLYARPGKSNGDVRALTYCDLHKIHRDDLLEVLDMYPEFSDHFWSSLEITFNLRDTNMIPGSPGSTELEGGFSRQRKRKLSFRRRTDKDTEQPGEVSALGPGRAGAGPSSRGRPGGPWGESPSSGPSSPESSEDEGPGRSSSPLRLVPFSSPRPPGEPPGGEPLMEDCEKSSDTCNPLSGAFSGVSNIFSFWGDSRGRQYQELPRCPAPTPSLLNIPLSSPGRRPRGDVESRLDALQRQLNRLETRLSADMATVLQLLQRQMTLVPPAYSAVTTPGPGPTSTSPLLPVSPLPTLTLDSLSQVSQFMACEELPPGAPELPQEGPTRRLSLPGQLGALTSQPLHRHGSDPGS
As for `O=C(CSc1ccccc1)N1CCN(S(=O)(=O)c2ccccc2)CC1`, the “hERG current change (%, negative = inhibition) at 1uM” value was found to be 10.4%.
Turning to `COC(=O)c1cccnc1NC(=S)NNC(=O)c1ccccc1`, the “hERG current change (%, negative = inhibition) at 1uM” value is reported as 21.4%.
Then `COC(=O)/C(C#N)=C/c1ccc(OC(=O)c2ccccn2)cc1`, with 8.64%; and `O=C(Nc1ccccc1)c1cc(S(=O)(=O)N2CCOCC2)cs1`, with -6.54%.
In the case of `CSc1ccc(S(=O)(=O)Nc2c(C)cccc2C)cc1`, the “hERG current change (%, negative = inhibition) at 1uM” value is 10.3%.
The figure for `O=C(NC(Cc1ccccc1)C(=O)N1CCCC1C(=O)O)c1ccccc1` (stereo not drawn) (Bz-Phe-Pro-OH; configuration not given here) is 12.2%; for `CSc1ccccc1N1CCN(C(=O)Nc2ccc3c(c2)NC(=O)CO3)CC1` it is -4.72%; for `COc1cccc(CNC(=O)c2ccccc2-c2ccccc2)c1` it is 10.4%.
Consider `Cc1cc(C)cc(C(=O)NCC(=O)OCC(=O)N2CCCCC2)c1`, for which the “hERG current change (%, negative = inhibition) at 1uM” value is reported as 8.39%.
Take `Cc1nc(SCc2ccc(Br)cc2)[nH]c(=O)c1C`: the “hERG current change (%, negative = inhibition) at 1uM” value amounted to 10.3%.
Consider `Cc1ccc(/C=C/C(=O)Nc2cc(S(=O)(=O)N3CCOCC3)ccc2N2CCOCC2)cc1`, for which the “hERG current change (%, negative = inhibition) at 1uM” value is reported as -8.01%.
For the compound `Clc1ccc(-c2nsc(N3CCOCC3)n2)c(Cl)c1`, the “hERG current change (%, negative = inhibition) at 1uM” value stood at 12.5%.
With `CSc1ccc(C(c2c(O)c3ccccc3oc2=O)c2c(C)n(C)n(-c3ccccc3)c2=O)cc1` (stereo not shown), the “hERG current change (%, negative = inhibition) at 1uM” value worked out at 2.76%.
Then `O=C1c2cccc3cccc(c23)C(=O)N1CCN1CCN(C(=S)Nc2ccccc2)CC1`, with 4.16%.
Regarding `O=C(O)C(Cc1ccc(Cl)cc1)Sc1nc2ccccc2[nH]1` (stereo not shown), the “hERG current change (%, negative = inhibition) at 1uM” value was 12.7%.
`CCOC(=O)Cc1nnc(NC(=O)C(CC)Sc2nnc3c4ccccc4n(C)c3n2)s1` (stereo not shown): the “hERG current change (%, negative = inhibition) at 1uM” value turned out to be 12.5%.
Turning to `COC(=O)c1nnn(-c2nonc2N)c1CSc1ccc(Cl)cc1`, the “hERG current change (%, negative = inhibition) at 1uM” value is recorded as 4.85%.
For the compound `Cc1cc(N2CCCCC2)nc(SCc2ccc(C#N)cc2)n1`, the “hERG current change (%, negative = inhibition) at 1uM” value worked out at 4.03%.
Turning to `COc1ccccc1Cc1nnnn1CC(=O)O`, the “hERG current change (%, negative = inhibition) at 1uM” value is recorded as 7.98%.
Then `O=C(CN(Cc1ccccc1F)C(=O)Cn1nnc(-c2cccs2)n1)NC1CCCCC1`, with 11.1%; and `COc1cccc(C2(O)CCN(Cc3ccncc3)CC2)c1`, with 11.8%; and `O=C(NCCCn1ccnc1)c1cc2c(s1)CCCCC2`, with 0.477%.
Take `COc1cc(NC(=S)Nc2ccc3c(c2)OCCO3)cc(OC)c1OC`: the “hERG current change (%, negative = inhibition) at 1uM” value was 11.5%.
Then `Cc1nc(SCC(=O)NCCc2ccc(Cl)cc2)nc(C)c1C`, with 10.8%; and `CSC1=N/C(=C\c2ccc(F)cc2)C(=O)S1`, with -2.96%.
Turning to `N#CC1(c2ccccc2)CCC(NCCc2ccccc2)CC1.O=C(O)C(=O)O` (stereo not shown), the “hERG current change (%, negative = inhibition) at 1uM” value was -23%.
Consider `CCc1ccc(CN2C(=O)c3ccccc3C2C(=O)NCc2cccnc2)cc1` (stereo not shown), for which the “hERG current change (%, negative = inhibition) at 1uM” value worked out at 6.43%.
For the compound `CN1CCN(C(=O)C2CC(c3ccc(F)cc3)=NO2)CC1` (stereo not shown), the “hERG current change (%, negative = inhibition) at 1uM” value is 2.24%.
Take `CC(=O)Nc1ccc(NC(=O)Cn2c(CC(=O)N3CCCC3)nc3ccccc32)cc1`: the “hERG current change (%, negative = inhibition) at 1uM” value stood at 6.65%.
Consider `Cc1[nH]nc(-c2ccc(OCc3cnn(-c4ccccc4)c3)c(C)c2O)c1Oc1ccccc1`, for which the “hERG current change (%, negative = inhibition) at 1uM” value was 8.49%.
Regarding `Cn1c(=O)[nH]c(=O)c2c1nc(N1CCCCCC1)n2CCN1CCCCCC1`, the “hERG current change (%, negative = inhibition) at 1uM” value is listed as 9.41%.
As to `C#CCOC(=O)/C(=C/C=C/c1ccccc1)NC(=O)c1ccccc1`, the “hERG current change (%, negative = inhibition) at 1uM” value is 1.57%.
Then `Cc1cc(C(C)(C)C)cc(S(=O)(=O)Nc2ccc(C(=O)O)cc2)c1C`, with 12.4%; and `O=C(Nc1ncc([N+](=O)[O-])s1)C1COc2ccccc2O1` (stereo not shown), with 19.9%.
With `CCOC(=O)c1sc(NS(=O)(=O)c2ccc(F)cc2)nc1C`, the “hERG current change (%, negative = inhibition) at 1uM” value is reported as 10%.
With `CC1CC(C)(C)NC(=S)N1CCC(=O)NCCc1ccc(Cl)cc1` (stereo not shown), the “hERG current change (%, negative = inhibition) at 1uM” value stood at 8.3%.
With `CCOc1cccc(-c2nc(C(N)=O)c3[nH]c(=O)n(-c4cccc(Cl)c4)c3n2)c1O`, the “hERG current change (%, negative = inhibition) at 1uM” value worked out at 17.5%.
On to `O=C(NC1CCN(Cc2ccccc2)CC1)c1cccc(S(=O)(=O)Nc2ccc(Br)cc2)c1`, for which the “hERG current change (%, negative = inhibition) at 1uM” value was 3.68%.
In the case of `CCCOc1ccc2ccccc2c1/C=C1\SC(=O)NC1=O`, the “hERG current change (%, negative = inhibition) at 1uM” value came out at 9.43%.
Turning to `O=C(Nc1nc(-c2ccccn2)cs1)c1ccc(-c2ccccc2F)o1`, the “hERG current change (%, negative = inhibition) at 1uM” value was 10.5%.
As to `O=C(CC1SC(=Nc2ccc(O)cc2)NC1=O)Nc1ccccc1` (stereo not shown), the “hERG current change (%, negative = inhibition) at 1uM” value was found to be 3.55%.
Take `NC(=O)CN1CCCC1=O`: the “hERG current change (%, negative = inhibition) at 1uM” value was 5.39%.
Turning to `COCCN(C(=S)Nc1ccc(C)cc1)C(C)c1cccnc1` (stereo not shown), the “hERG current change (%, negative = inhibition) at 1uM” value turned out to be 8.02%.
Regarding `Cc1ccc2c(c1)C(=O)C(=O)N2CCCOc1ccccc1C`, the “hERG current change (%, negative = inhibition) at 1uM” value came out at 4.6%.
With `CN(C)CCOC(=O)C12CC3CC(CC(C3)C1)C2.Cl`, the “hERG current change (%, negative = inhibition) at 1uM” value is recorded as 12.2%.
Take `COC(=O)CN=C1OC(=O)N2C(=O)C3=C4[C@@H](C[C@H]5C(=O)N(c6ccccc6)C(=O)[C@H]5[C@H]4[C@@]12Cc1ccccc1)[C@H]1C(=O)N(c2ccccc2)C(=O)[C@H]1[C@H]3C`: the “hERG current change (%, negative = inhibition) at 1uM” value is listed as 8.66%.
